{"source": "PubChem BioAssay AID1240", "about": "(Sanford-Burnham Center for Chemical Genomics, 2008)", "note": "Out of some 50,000 compounds screened, about 800 (1.6%) showed an effect of 50% or more. This is one part of the list.", "data": [{"molecular_target": "Bcl-2-like protein 10 (Homo sapiens) (UniProt Q9HD36)", "sequence (Q9HD36 whole entry, looked up)": "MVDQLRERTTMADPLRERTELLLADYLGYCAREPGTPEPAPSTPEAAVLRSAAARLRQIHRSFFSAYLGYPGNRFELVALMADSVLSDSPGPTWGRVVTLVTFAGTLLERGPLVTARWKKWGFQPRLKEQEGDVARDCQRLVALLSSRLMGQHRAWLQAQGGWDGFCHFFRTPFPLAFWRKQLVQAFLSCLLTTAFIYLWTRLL", "assay": "TR3 peptide-Bcl-B binding displacers, biochemical primary FP assay, phenotype converters (AID 1240);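 note: 0% = Bcl-B with tracer peptide and DMSO and 100% = tracer peptide lacking Bcl-B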", "details": "GST-Bcl-B / FITC-TR3 peptide fluorescence polarization; stronger effect = higher value; compound at 3.75 mg/L", "units": {"displacement": "%"}, "values": [{"smiles": "CS(=O)(=O)N(Cc1ccc(Cl)cc1)c1ccc(C(=O)NCc2ccncc2)cc1", "displacement": 6.5}, {"smiles": "CC(C)(C)OC(=O)N1CC(O)CC1C(=O)NC1CCCCC1", "note": "(stereo unspecified)", "displacement": 0.2}, {"smiles": "COc1cc(/C=N\\NC(=O)COc2ccccc2Cl)cc(OC)c1O", "displacement": -8.1}, {"smiles": "Cc1ccccc1C(=O)N1CC(C)CC(C)C1", "note": "(stereo unspecified)", "displacement": 16.8}, {"smiles": "CC(=O)Nc1ccc(S(=O)(=O)Nc2cccc(Cl)c2)cc1", "displacement": -7.3}, {"smiles": "Cn1c(COc2ccc(Cl)cc2)nc2ccccc2c1=O", "displacement": -1.8}, {"smiles": "CCc1ccc(-n2c(C)cc(/C=C3/NC(=O)NC3=O)c2C)cc1", "displacement": -6.3}, {"smiles": "Cc1ccc(C(=O)Nc2ccccc2C(=O)OCCN2CCCC2=O)cc1", "displacement": 19.9}, {"smiles": "CCCC(C)NC(=O)c1ccc(C)c([N+](=O)[O-])c1", "note": "(stereo unspecified)", "displacement": 5.5}, {"smiles": "COC(=O)c1sc(NC(=O)/C=C/c2cccc([N+](=O)[O-])c2)c(C(=O)OC)c1C", "displacement": -0.2}, {"smiles": "COc1cccc(NC(=O)c2cccc(C(F)(F)F)c2)c1", "displacement": -9.2}, {"smiles": "COc1ccc(C2/C(=C(\\O)c3ccccc3)C(=O)C(=O)N2c2cccnc2)cc1OC", "note": "(stereo unspecified)", "displacement": 4.2}, {"smiles": "Cc1cc(OCC(=O)Nc2ccc(F)cc2)ccc1Cl", "displacement": 1.6}, {"smiles": "Cc1ccc(N/C=C2/CNC(=O)NC2=O)cc1", "displacement": 37.8}, {"smiles": "O=[N+]([O-])c1ccc(O)c(/C=N/Nc2nnc(-c3ccccc3)c(-c3ccccc3)n2)c1", "displacement": 16.8}, {"smiles": "Cc1cccc(C(=O)Nc2sc3c(c2C(=O)N2CCCC2)CCCCC3)c1", "displacement": -7.4}, {"smiles": "O=C(c1cc(Cl)ccc1Cl)N1CCN(c2ccc(F)cc2)CC1", "displacement": -10.7}, {"smiles": "COc1ccc(C(=O)Nc2ccc(S(N)(=O)=O)cc2)cc1[N+](=O)[O-]", "displacement": -7.1}, {"smiles": "Cc1ccccc1C(=O)NCCCn1ccnc1", "displacement": -11}, {"smiles": "CC(C)OP(=O)(OC(C)C)C(O)c1ccc2c(c1)OCO2", "note": "(stereo unspecified)", "displacement": 9.4}, {"smiles": "CCCCC1CCC(C(=O)NNC(N)=O)CC1", "note": "(stereo unspecified)", "displacement": -4.8}, {"smiles": "COc1ccc(C2CC(=O)C3=C(C2)Nc2ccccc2NC3c2cc(Br)c(OC)c(OC)c2)cc1", "note": "(stereo unspecified)", "displacement": -4.4}, {"smiles": "CCOc1cc2c(c([N+](=O)[O-])c1)NC(c1ccccc1)C1CC=CC21", "note": "(stereo unspecified)", "displacement": -2}, {"smiles": "O=C1NC(=S)N(c2ccccc2F)C(=O)/C1=C/c1ccc(I)o1", "displacement": -44.4}, {"smiles": "Cc1ccc(N2CCN(/N=C\\c3cccc(Cl)c3Cl)CC2)cc1", "displacement": 28}, {"smiles": "O=C(Cc1ccccc1)Nc1ncc(Cc2ccc(Cl)c(Cl)c2)s1", "displacement": 0.5}, {"smiles": "O=S(=O)(N/N=C/c1cccs1)c1ccc(Cl)cc1", "displacement": 2.5}, {"smiles": "COc1ccc(-c2nnc(-c3ccc(Br)o3)o2)cc1", "displacement": -12.4}, {"smiles": "Cc1ccc(OCC(=O)Nc2ccc(F)cc2F)c(C)c1", "displacement": -4.4}, {"smiles": "O=C1NC(=S)N(c2ccccc2)C(=O)/C1=C/c1ccc(O)c(Cl)c1", "displacement": 1.2}, {"smiles": "CCOc1c(Br)cc(/C=C2/C(=O)NN(c3ccccc3)C2=O)cc1OC", "displacement": 14.7}, {"smiles": "C=C(C)COc1ccc2oc(C)c(C(=O)OCC)c2c1", "displacement": 8.5}, {"smiles": "N#CC1=C(N)Oc2cc(N)ccc2C1c1ccc(Br)cc1", "note": "(stereo unspecified)", "displacement": -7.3}, {"smiles": "CCOC(=O)c1ccc(NS(=O)(=O)c2cc(-c3nnnn3C)ccc2OC)cc1", "displacement": 5.9}, {"smiles": "O=C(c1cccc(Nc2nc(-c3ccccc3)c3cc(Cl)ccc3n2)c1)N1CCOCC1", "displacement": 4.1}, {"smiles": "CC(=O)Nc1ccccc1NC(=O)C(c1ccccc1)c1ccccc1", "displacement": -2.5}, {"smiles": "O=C(Nc1cccc2nsnc12)C(c1ccccc1)c1ccccc1", "displacement": 2.8}, {"smiles": "COc1cc(/C=C2\\C(=O)NC(=S)N(c3ccc(F)cc3)C2=O)ccc1O", "displacement": -0.2}, {"smiles": "COc1cc(C(=O)N/N=C/c2cc(Cl)ccc2O)ccc1O", "displacement": 6.7}, {"smiles": "Cc1ccc(C(C)NC(=O)c2ccccc2)cc1", "note": "(stereo unspecified)", "displacement": 9.1}, {"smiles": "Cc1nnc(N/N=C/c2c(O)ccc3ccccc23)[nH]c1=O", "displacement": -17}, {"smiles": "O=C1c2ccccc2C(=O)N1CC(=O)N(Cc1ccccc1)c1cccc([N+](=O)[O-])c1", "displacement": -5.7}, {"smiles": "CCOc1ccc(/C(C)=N/NS(=O)(=O)c2ccccc2)cc1", "displacement": -2.5}, {"smiles": "CCCN1C(=O)C(=Cc2nc3ccccc3c(=O)n2CC)c2cc(Br)ccc21", "displacement": -3.2}, {"smiles": "CCOC(=O)c1c(NC(=O)COc2ccccc2C)sc(C(=O)Nc2ccccc2F)c1C", "displacement": -0.6}, {"smiles": "O=c1[nH]c(NCCO)nc2sc3c(c12)CCCC3", "displacement": 3.3}, {"smiles": "CCCCOc1ccc(NC(=O)CCSc2nccn2C)cc1", "displacement": 13.6}, {"smiles": "Cc1ccc(C(C)C)c(OCCNC(=O)c2ccc(Cl)cc2Cl)c1", "displacement": 10.7}, {"smiles": "COc1ccccc1NC(=O)c1c(NC(=O)c2cccc(F)c2)sc(-c2ccccc2)c1C", "displacement": -7.2}, {"smiles": "Cc1cc(=O)n(-c2cccc(C(F)(F)F)c2)n1C", "displacement": -3}, {"smiles": "CC(=NCCN1CCOCC1)c1c(C(F)(F)F)[nH]n(-c2nc3ccccc3s2)c1=O", "displacement": -8.1}, {"smiles": "O=C(Nc1ccc([N+](=O)[O-])cc1)/C(=C\\c1ccc(Br)cc1)NC(=O)c1ccco1", "displacement": -1.7}, {"smiles": "COc1ccc(Cl)cc1NC(=O)c1cc2c(C)nn(-c3ccccc3)c2s1", "displacement": -16.2}, {"smiles": "CN(C)/C=C1\\N=C(c2ccc(F)cc2)OC1=O", "displacement": 7.7}, {"smiles": "NC(N)=NS(=O)(=O)c1ccc(NC(=S)Nc2ccccc2)cc1", "displacement": -6}, {"smiles": "O=S(=O)(N/N=C/c1cccc(OC2CSC2)c1)c1ccccc1", "displacement": -1.5}, {"smiles": "COc1ccccc1C1C(C(=O)OCCc2ccccc2)=C(C)NC2=C1C(=O)CCC2", "note": "(stereo unspecified)", "displacement": -8.6}, {"smiles": "C/C(=C(\\C#N)C(=O)NCc1ccccc1)N(C)C", "displacement": -8.8}, {"smiles": "NC(=O)NC(CCc1ccccc1)c1ccccc1", "note": "(stereo unspecified)", "displacement": 0.5}, {"smiles": "O=C(COc1ccccc1)Nc1ccc(S(=O)(=O)N2CCCCCC2)cc1", "displacement": -10.6}, {"smiles": "CCOc1ccc2sc(C=NC3CCCCC3)c(O)c2c1", "displacement": 6.3}, {"smiles": "COc1ccc(C2C(C(=O)OCCc3ccccc3)=C(C)NC3=C2C(=O)CCC3)cc1", "note": "(stereo unspecified)", "displacement": -7.3}, {"smiles": "CC(=O)c1cccc(NC(=O)CSC2=NCCS2)c1", "displacement": 14.8}, {"smiles": "Cc1ccc(NC(=O)Nc2cccnc2)cc1", "displacement": -3.3}, {"smiles": "O=C(Nc1ncccc1Cl)c1ccc2c(c1)OCO2", "displacement": 6.1}, {"smiles": "Cc1[nH]n(S(=O)(=O)c2ccccc2)c(=O)c1N=Nc1cccc(Cl)c1", "displacement": -13.8}, {"smiles": "C=CCN1C(=O)/C(=C\\c2ccc(-c3ccc([N+](=O)[O-])cc3)o2)C(=O)NC1=S", "displacement": 12.1}, {"smiles": "CCCc1cc2c(-c3ccccc3)cc(=O)oc2cc1OCC(=O)O", "displacement": 8.7}, {"smiles": "Cc1sc(NC(=O)Cc2ccccc2)nc1-c1ccccc1", "displacement": 6.6}, {"smiles": "COc1ccc(/C=N/NS(=O)(=O)c2ccc(C)cc2)cc1OCc1ccccc1", "displacement": -2.7}, {"smiles": "O=C(c1ccccc1F)N1CCN(Cc2cccc(F)c2)CC1", "displacement": -12}]}]}
